Laboratory results as given in the supplement of paper PMC3334620.
The full ranking holds about 33,000 sequences; the median of “E-score (-0.5 to 0.5)” is about -0.032, and the highest 2% start at about 0.36. The list shows a part of the results.

target: T1, Sko1 (UniProt Q02100); assay: PBM E-score (8-mer binding enrichment) (E-score (-0.5 to 0.5)); higher = stronger / more preferred TF binding; most listed sequences are background and not binding sites; conditions: protein concentration: 200 nM; construct: GST-full length
T1 sequence: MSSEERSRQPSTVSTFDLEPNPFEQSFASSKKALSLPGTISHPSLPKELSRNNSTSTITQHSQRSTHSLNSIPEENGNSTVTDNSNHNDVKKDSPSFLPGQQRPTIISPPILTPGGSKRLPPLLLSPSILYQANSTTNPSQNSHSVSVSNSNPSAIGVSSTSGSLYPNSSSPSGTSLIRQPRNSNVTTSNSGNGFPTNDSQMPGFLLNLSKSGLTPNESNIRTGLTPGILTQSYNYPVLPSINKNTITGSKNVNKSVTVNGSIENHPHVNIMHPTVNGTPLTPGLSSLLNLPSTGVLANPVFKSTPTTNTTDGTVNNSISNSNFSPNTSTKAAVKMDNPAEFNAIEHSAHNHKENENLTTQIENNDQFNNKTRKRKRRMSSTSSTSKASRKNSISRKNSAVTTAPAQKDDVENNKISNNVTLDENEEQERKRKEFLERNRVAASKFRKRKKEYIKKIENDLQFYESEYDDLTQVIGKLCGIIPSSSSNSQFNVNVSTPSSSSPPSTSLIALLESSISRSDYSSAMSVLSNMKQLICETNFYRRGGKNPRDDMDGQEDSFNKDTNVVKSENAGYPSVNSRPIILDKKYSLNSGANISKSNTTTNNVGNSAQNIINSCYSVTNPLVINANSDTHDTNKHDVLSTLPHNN
Procedure, shortened: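 Each ungapped eight-base word and its reverse complement, pooled, received an E-score from the Universal PBM Analysis Suite. Underlying scans, normalised with masliner, recorded fluorescent anti-GST bound to GST-tagged yeast transcription factors. These were applied at about 100-200 nM to universal all-10-mer Agilent arrays double-stranded by primer extension.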

First: CTACCAAA
Second: ATAGCGAG
The “PBM E-score” value of the first is higher: 0.00063 for the first, -0.0959 for the second.

Going from GACAGGGC to GACTGGGA, the “PBM E-score” value falls from -0.196 to -0.208.

First: ACTCAGCA
Second: CTCGTCGC
The “PBM E-score” value of the first is higher: -0.0686 for the first, -0.106 for the second.

Compared with AGGTCAAA, CTCCCAAC is lower in “PBM E-score” value: 0.00674 for the first, -0.218 for the second.

Compared with GTCGGATA, ACTATATC is higher in “PBM E-score” value: 0.0725 for the first, 0.0886 for the second.

First: ATGGAGAG
Second: CGAGGCCA
The “PBM E-score” value of the first is higher: -0.0532 for the first, -0.21 for the second.

Compared with CATAGCTA, AATCTCCT is lower in “PBM E-score” value: -0.0746 for the first, -0.137 for the second.

First: GGGGACCC
Second: AGGCGACG
The “PBM E-score” value of the first is lower: -0.397 for the first, -0.0981 for the second.

Going from CCCGTGAC to TCAGTCAA, the “PBM E-score” value falls from 0.109 to 0.0227.

Compared with GATTGCGC, CGCGGAAC is lower in “PBM E-score” value: 0.101 for the first, -0.165 for the second.

Going from GGCGACAA to ACAGCCAA, the “PBM E-score” value rises from -0.251 to -0.1.

Compared with CAGGGCGC, CCCTAAGG is lower in “PBM E-score” value: -0.208 for the first, -0.34 for the second.

First: AGTGTAAG
Second: ACAAGGGC
The “PBM E-score” value of the first is higher: -0.158 for the first, -0.291 for the second.

Compared with AGCGGAGA, ATTTTGGC is higher in “PBM E-score” value: 0.0679 for the first, 0.11 for the second.

Compared with ACAGGCCA, ACTTTAAC is higher in “PBM E-score” value: -0.285 for the first, -0.115 for the second.

Going from ACTGGTTA to CAGTTGTA, the “PBM E-score” value falls from 0.0712 to -0.082.

First: CGTCAATC
Second: ATATCCCA
The “PBM E-score” value of the first is higher: 0.365 for the first, 0.00152 for the second.

Going from AGAAGTAG to TACCCCGA, the “PBM E-score” value falls from -0.0407 to -0.221.

First: GTACAAAA
Second: ACTCAAGG
The “PBM E-score” value of the first is higher: 0.236 for the first, -0.251 for the second.

First: CAACGTTC
Second: ATTTCACC
The “PBM E-score” value of the first is higher: 0.101 for the first, 0.0643 for the second.

First: CTTTCCTA
Second: AGGTTGGA
The “PBM E-score” value of the first is lower: -0.257 for the first, -0.00974 for the second.

First: ATCGTGTG
Second: CTGTTGAA
The “PBM E-score” value of the first is higher: 0.0593 for the first, -0.0366 for the second.

First: CCGTTGAC
Second: ACCGTCTC
The “PBM E-score” value of the first is lower: -0.0856 for the first, 0.027 for the second.

Compared with ACACCTAC, AAAGATCA is higher in “PBM E-score” value: -0.0103 for the first, 0.142 for the second.

First: ACCGACCA
Second: ATCAAGGA
The “PBM E-score” value of the first is higher: -0.0462 for the first, -0.0586 for the second.

Compared with ATGTAAAA, CCTTTCCC is lower in “PBM E-score” value: 0.211 for the first, -0.184 for the second.

Compared with CCATCTCG, CTGGTGTA is higher in “PBM E-score” value: -0.145 for the first, -0.0341 for the second.

First: ACGATTGG
Second: AGGGAGCG
The “PBM E-score” value of the first is higher: 0.116 for the first, -0.363 for the second.

Compared with ATGCCTTC, AGCGGTTA is higher in “PBM E-score” value: -0.192 for the first, -0.0513 for the second.

Going from ATATTCAT to CATACCGG, the “PBM E-score” value falls from 0.224 to -0.183.

First: AAAATCAG
Second: ATGGATTG
The “PBM E-score” value of the first is lower: 0.0818 for the first, 0.174 for the second.

Going from CTTATCAA to CTCTTATC, the “PBM E-score” value falls from 0.142 to 0.125.

Going from CAAGGTAA to AGTACTAC, the “PBM E-score” value rises from 0.0248 to 0.329.

First: GCTCTACA
Second: GGCTGGCA
The “PBM E-score” value of the first is higher: -0.192 for the first, -0.303 for the second.

Going from AGAGAAGC to AACCATCA, the “PBM E-score” value rises from -0.242 to 0.132.

Going from ATTCATAC to CTAAAAAA, the “PBM E-score” value rises from 0.124 to 0.153.

Compared with ATGAGTGC, ATGCAAAT is higher in “PBM E-score” value: 0.0631 for the first, 0.0767 for the second.

Compared with GATTTTAA, ACAACAGG is lower in “PBM E-score” value: 0.19 for the first, 0.0881 for the second.

Going from CTGCACAG to AGTTTTGC, the “PBM E-score” value rises from -0.197 to 0.146.

Going from CGGACTAA to GGGAAGAC, the “PBM E-score” value falls from 0.079 to -0.185.

Going from TAGCTAAA to AGGGATGG, the “PBM E-score” value falls from 0.159 to -0.156.

Going from CACACCAG to AATCCCCA, the “PBM E-score” value falls from -0.0143 to -0.0808.

First: ACGACGCA
Second: CTTCGGGC
The “PBM E-score” value of the first is higher: 0.334 for the first, -0.279 for the second.

First: GGTACTAC
Second: GCGAAGCA
The “PBM E-score” value of the first is lower: -0.0599 for the first, 0.0215 for the second.

Going from AGTAGCCC to CGCAGTTC, the “PBM E-score” value rises from -0.34 to 0.0781.

Going from CCACTAAG to AGTGGCAT, the “PBM E-score” value rises from -0.166 to -0.16.

Going from TATTGGGA to GGAGGACC, the “PBM E-score” value falls from -0.00016 to -0.284.

Compared with AGATTTTA, AGGACTGC is lower in “PBM E-score” value: 0.0718 for the first, -0.25 for the second.

Compared with AGACTCAG, CACCGATG is higher in “PBM E-score” value: -0.217 for the first, 0.152 for the second.

Compared with CCCGATTA, GAATTCAC is higher in “PBM E-score” value: 0.0149 for the first, 0.101 for the second.

Compared with GTATCCAA, AAATTAGA is higher in “PBM E-score” value: -0.0692 for the first, 0.174 for the second.

Compared with TCCAATCA, CTCGTTGA is lower in “PBM E-score” value: -0.109 for the first, -0.137 for the second.

Compared with CACCGGAA, CCATGTGA is lower in “PBM E-score” value: -0.0491 for the first, -0.12 for the second.

First: ATTGACAG
Second: GAAAGTCC
The “PBM E-score” value of the first is higher: -0.0166 for the first, -0.309 for the second.

First: ACCTTTGA
Second: GCAATCGA
The “PBM E-score” value of the first is lower: -0.162 for the first, 0.123 for the second.

First: ACCAGCGA
Second: CGGGTAAC
The “PBM E-score” value of the first is higher: -0.19 for the first, -0.215 for the second.

Compared with ATTACGCG, ATCCTCAA is lower in “PBM E-score” value: 0.431 for the first, 0.0793 for the second.

First: CAGCCGCA
Second: ACAAGGGT
The “PBM E-score” value of the first is lower: -0.311 for the first, -0.0251 for the second.

First: GGAACTCA
Second: TCATGGAA
The “PBM E-score” value of the first is lower: -0.237 for the first, 0.191 for the second.

First: AGTAGCAC
Second: ACATGGGT
The “PBM E-score” value of the first is lower: -0.0478 for the first, 0.0626 for the second.

First: AAGGATAG
Second: CTGACCGC
The “PBM E-score” value of the first is higher: -0.0679 for the first, -0.239 for the second.

Going from TCATAGGA to TAAAGAAA, the “PBM E-score” value falls from 0.191 to 0.179.

Going from AGCTACGC to ACGAACGC, the “PBM E-score” value rises from 0.146 to 0.149.

Compared with ACGTTAGG, GGTAGTCA is lower in “PBM E-score” value: 0.244 for the first, -0.123 for the second.

Compared with ATCACCAG, ACTGAAAA is higher in “PBM E-score” value: -0.148 for the first, 0.0792 for the second.

Compared with CGCGGATA, CTTAGCTA is higher in “PBM E-score” value: 0.00703 for the first, 0.0322 for the second.

First: ACGCCTCG
Second: CTTCTCTC
The “PBM E-score” value of the first is higher: -0.0404 for the first, -0.0902 for the second.

First: GCGTTGTA
Second: CCATGAAA
The “PBM E-score” value of the first is higher: 0.057 for the first, -0.171 for the second.

Going from CTAGCCAC to ACGGATCT, the “PBM E-score” value rises from -0.198 to -0.146.

Going from GTATTCGA to GTGGGCGA, the “PBM E-score” value rises from -0.0882 to 0.0113.

First: CCGGAGAC
Second: ACAGACCA
The “PBM E-score” value of the first is higher: -0.0548 for the first, -0.115 for the second.

Compared with CAGAGGAC, ACTAGTAT is higher in “PBM E-score” value: -0.134 for the first, 0.19 for the second.

Compared with ATAGAACC, AGAAAACG is higher in “PBM E-score” value: -0.246 for the first, 0.251 for the second.

Going from GGACTCCA to CCCCATGA, the “PBM E-score” value rises from -0.157 to -0.0674.

Compared with CCATCAAG, ACCATCCA is lower in “PBM E-score” value: -0.189 for the first, -0.204 for the second.

Going from CACGTATA to ATTAAGCG, the “PBM E-score” value falls from 0.431 to 0.0319.

Compared with CCTGGGCA, CGTCCGGA is higher in “PBM E-score” value: -0.295 for the first, -0.109 for the second.

Going from ACGTCTAT to AGCGTTCA, the “PBM E-score” value falls from 0.338 to -0.139.

Going from GGCAAACC to TAACCTCA, the “PBM E-score” value rises from -0.231 to 0.157.

Compared with GCGGTGAA, CATCGGAC is lower in “PBM E-score” value: -0.0294 for the first, -0.104 for the second.

Going from AAATCTGA to AGCTATGA, the “PBM E-score” value rises from 0.157 to 0.209.

First: CATACCTC
Second: ACTCATCC
The “PBM E-score” value of the first is lower: -0.00759 for the first, 0.0876 for the second.

Compared with AAACAGCC, GCTACGAA is higher in “PBM E-score” value: -0.17 for the first, 0.239 for the second.

First: ATGATTGG
Second: ATCAGGCA
The “PBM E-score” value of the first is higher: 0.00474 for the first, -0.158 for the second.

First: ACCTCTCT
Second: AGCCTGAC
The “PBM E-score” value of the first is lower: -0.189 for the first, -0.093 for the second.

Going from GCATGTAA to CAATCTGG, the “PBM E-score” value falls from 0.168 to -0.104.
